Values joined by “and” are separate entries in the source; they are usually repeats but may differ in a detail not shown here. Equal values may be shown once. In all, about 410,000 compounds went through this assay and about 6,400 (1.6%) were called active. Inconclusive results, whose numbers are uncertain, are shown with a selection of clear calls. Calls come from the whole dose curve; as a rule, active = well fitted inhibition curve with a large enough effect; inconclusive = small, poorly fitted or top-dose-only effect; inactive = no such curve, though single readings can be large or run the other way. A potency beside an inconclusive call is a rough fit, not a confirmed value.
biological target: Glucagon-like peptide 1 receptor (Homo sapiens) (UniProt P43220); assay: qHTS of GLP-1 Receptor Inverse Agonists (Inhibition Mode); details: HEK293 GLP-1R CRE-luciferase, luminescence, 24 h, GLP-1R form is constitutively active; series mostly up to 38.3 µM; note: nearly all actives have a fitted effect of over 55% in size
Method in brief: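 Using stably transfected HEK293 (constitutively active GLP-1R, cAMP-luciferase reporter), compounds were incubated 24 hr and luciferase measured by luminescence.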
Potency is the fitted concentration of half-maximal effect; tags give direction and shape of the fitted curve.

UniProt P43220, sequence (P43220 whole entry, looked up): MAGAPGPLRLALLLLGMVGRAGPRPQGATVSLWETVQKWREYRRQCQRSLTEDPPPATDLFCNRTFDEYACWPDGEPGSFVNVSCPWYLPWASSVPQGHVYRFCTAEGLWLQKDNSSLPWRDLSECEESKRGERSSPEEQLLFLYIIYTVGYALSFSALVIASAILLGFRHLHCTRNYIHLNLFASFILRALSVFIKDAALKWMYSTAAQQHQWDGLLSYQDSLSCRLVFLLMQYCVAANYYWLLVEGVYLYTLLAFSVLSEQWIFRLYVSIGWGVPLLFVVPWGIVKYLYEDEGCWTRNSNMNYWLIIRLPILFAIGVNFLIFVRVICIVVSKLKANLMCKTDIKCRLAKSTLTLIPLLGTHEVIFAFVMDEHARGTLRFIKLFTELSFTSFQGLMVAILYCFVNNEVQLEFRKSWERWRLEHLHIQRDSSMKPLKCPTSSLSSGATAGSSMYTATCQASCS

| Structure (SMILES) | Potency |
| --- | --- |
| COc1ccc(/C=N/Nc2cc(C)nc3ccc(OC)cc23)c(OC)c1 | inconclusive: 11.2 µM [inhibitor, partial curve, poor fit] |
| Cc1ccc(N2CN(CCC3=CCCCC3)CNC2=S)cc1 | inconclusive: 7.94 µM [inhibitor, partial curve, poor fit] |
| C=CCOc1ccccc1CN(CCc1ccccc1)C(=O)c1cccc(S(C)(=O)=O)c1 | inconclusive: 31.6 µM [inhibitor, single point] |
| O=[N+]([O-])c1ncccc1OCc1ccc(Cl)c(Cl)c1 | inconclusive: 28.2 µM [inhibitor, single point] |
| CN1C(=O)[C@H]2[C@@H](c3ccc(C(F)(F)F)cc3)N[C@]3(CCCN(CC4CCCCC4)C3=O)[C@H]2C1=O | inconclusive: 28.2 µM [inhibitor, single point] |
| CCCCC(=O)NC(c1ccco1)c1cc(Cl)c2cccnc2c1O (stereo unspecified) | inconclusive: 10 µM [inhibitor, single point] |
| CO/N=C/c1ccc(Sc2ccccc2)c([N+](=O)[O-])c1 | inconclusive: 10 µM [inhibitor, single point] |
| CCCCn1ccnc1C(=O)c1cccc(S(=O)(=O)N2c3ccccc3CC2C)c1 (stereo unspecified) | inconclusive: 8.91 µM [inhibitor, partial curve, poor fit] |
| O=C(CSc1nc2c([nH]c3ccccc32)c(=O)n1-c1ccc(Cl)cc1)NC1CCCCC1 | inactive |
| O=[N+]([O-])c1cc(S(=O)(=O)NCCN2CCOCC2)ccc1Sc1nnnn1-c1ccccc1 | inconclusive: 7.94 µM [inhibitor, partial curve, poor fit] |
| CCCCNC(=O)Nc1ccc2c(c1)N(C)C(=O)c1ccccc1S2 | inconclusive: 10 µM [inhibitor, partial curve, poor fit] and inconclusive: 28.2 µM [inhibitor, single point] |
| CCc1ccc(NC(=O)N2CCN(Cc3nc4ccc(C)cc4o3)CC2)cc1 | inconclusive: 14.1 µM [inhibitor, single point] |
| O=C(Nc1ccc(C(=O)N2CCOCC2)cc1)c1cc(-c2cccnc2)nc2ccc(Br)cc12 | inconclusive: 28.2 µM [inhibitor, single point] |
| Cc1ccccc1C(=O)N/N=C/c1ccncc1 | inactive |
| CCCCNC(=O)c1nn2c(C(F)(F)F)cc(-c3ccccc3)nc2c1Br | inconclusive: 1.41 µM [inhibitor, full curve, poor fit] |
| COc1ccc(C(=O)NCCc2csc(-c3ccc(Cl)cc3)n2)c(OC)c1 | inconclusive: 28.2 µM [inhibitor, single point] |

From PubChem BioAssay AID624417 (National Center for Advancing Translational Sciences (NCATS), 2012)
